# Measured values taken from the supplement of paper PMC8728848.
# Some of the results follow.
# B1: GS14009A-pdi-495-27-495 (Parabacteroides distasonis) (protein)
# chain: FEEVNTDPDSPTDVPTTNLLAYSLYYTSYRLYDRWFAMDEPMTFCGYASKMTYIDESRYNFRTGVQDTNWEYLYRILNNLKDIEKRATFNETPNMLNVSKVMQVHLMQVATDRWRDVPYTDAAKMTDGILQPKYDKQEDIYPGLLATLKEAADGFADGGSDDLGEGDLLFGGDIEKWQRYCNSMRLRLAMRISEVSPALAKETVEEVMGNPTKYPIMESNDDNAFFWWIGTDPNYYEPMADGYRTRKTEYCAADVIVDHMNTREDPRRSSYFQPTKESVEAGEPKYVGYTIGAKANAVASKYSIWGARFFTDLAGFSPYMRVAEPWFCVAEASMLGWNTGISAEDAYNKAVTYSMEENSVSAEDIADYLANAGKFTNDKKQIYYEEWVAMFKQGMEGWSLYRRTGVPDNLYPAPGRPANYSNHNVPPFRSPYPDKERNLNNANCAPFDAEVVDNLWGKQMWWDTRTGVH
# Key:
# Test in all cases: glycan array binding signal (z-score within array); higher = stronger binding
# Conditions in all cases: glycan notation: IUPAC condensed, linker removed
# [1] = molecular target: Gal(b1-4)GlcNAc(b1-3)Gal(b1-4)GlcNAc(b1-2)[Gal(b1-4)GlcNAc(b1-3)Gal(b1-4)GlcNAc(b1-6)]Man(a1-6)[Gal(b1-4)GlcNAc(b1-3)Gal(b1-4)GlcNAc(b1-2)Man(a1-3)]Man(b1-4)GlcNAc(b1-4)GlcNAc
# How it was run: (§1)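 Columns mapping to the same glycan were averaged after glycan names were converted to IUPAC-condensed notation. The data come from 3228 arrays in the Consortium for Functional Glycomics database, limited to those with an available protein sequence. Binding is reported as a within-array Z-score averaged across arrays of one protein sequence and across linkers.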
# [2] = molecular target: Gal(b1-4)GlcNAc(b1-3)Gal(b1-4)GlcNAc(b1-2)[Gal(b1-4)GlcNAc(b1-3)Gal(b1-4)GlcNAc(b1-6)]Man(a1-6)[Gal(b1-4)GlcNAc(b1-3)Gal(b1-4)GlcNAc(b1-2)Man(a1-3)]Man(b1-4)GlcNAc(b1-4)[Fuc(a1-6)]GlcNAc
# How it was run: as §1
# [3] = molecular target: Gal(b1-4)GlcNAc(b1-3)Gal(b1-4)GlcNAc(b1-3)Gal(b1-4)GlcNAc
# How it was run: as §1
# [4] = molecular target: Gal(b1-4)GlcNAc(b1-3)Gal(b1-4)GlcNAc(b1-3)Gal(b1-4)GlcNAc(b1-2)Man(a1-3)[Gal(b1-4)GlcNAc(b1-3)Gal(b1-4)GlcNAc(b1-3)Gal(b1-4)GlcNAc(b1-2)Man(a1-6)]Man(b1-4)GlcNAc(b1-4)GlcNAc
# How it was run: as §1
# [5] = molecular target: Gal(b1-4)GlcNAc(b1-3)Gal(b1-4)GlcNAc(b1-3)Gal(b1-4)GlcNAc(b1-2)Man(a1-3)[Gal(b1-4)GlcNAc(b1-3)Gal(b1-4)GlcNAc(b1-3)Gal(b1-4)GlcNAc(b1-2)Man(a1-6)]Man(b1-4)GlcNAc(b1-4)[Fuc(a1-6)]GlcNAc
# How it was run: as §1
# [6] = molecular target: Gal(b1-4)GlcNAc(b1-3)Gal(b1-4)GlcNAc(b1-3)Gal(b1-4)GlcNAc(b1-2)[Gal(b1-4)GlcNAc(b1-3)Gal(b1-4)GlcNAc(b1-3)Gal(b1-4)GlcNAc(b1-6)]Man(a1-6)[Gal(b1-4)GlcNAc(b1-3)Gal(b1-4)GlcNAc(b1-3)Gal(b1-4)GlcNAc(b1-2)Man(a1-3)]Man(b1-4)GlcNAc(b1-4)[Fuc(a1-6)]GlcNAc
# How it was run: as §1
# [7] = molecular target: Gal(b1-4)GlcNAc(b1-3)Gal(b1-4)GlcNAc(b1-3)Gal(b1-4)GlcNAc(b1-3)Gal(b1-4)GlcNAc(b1-2)Man(a1-3)[Gal(b1-4)GlcNAc(b1-3)Gal(b1-4)GlcNAc(b1-3)Gal(b1-4)GlcNAc(b1-3)Gal(b1-4)GlcNAc(b1-2)Man(a1-6)]Man(b1-4)GlcNAc(b1-4)GlcNAc
# How it was run: as §1
# [8] = molecular target: Gal(b1-4)GlcNAc(b1-3)Gal(b1-4)GlcNAc(b1-3)Gal(b1-4)GlcNAc(b1-3)Gal(b1-4)GlcNAc(b1-2)Man(a1-3)[Gal(b1-4)GlcNAc(b1-3)Gal(b1-4)GlcNAc(b1-3)Gal(b1-4)GlcNAc(b1-3)Gal(b1-4)GlcNAc(b1-2)Man(a1-6)]Man(b1-4)GlcNAc(b1-4)[Fuc(a1-6)]GlcNAc
# How it was run: as §1
# [9] = molecular target: Gal(b1-4)GlcNAc(b1-3)Gal(b1-4)GlcNAc(b1-3)Gal(b1-4)GlcNAc(b1-3)Gal(b1-4)GlcNAc(b1-2)[Gal(b1-4)GlcNAc(b1-3)Gal(b1-4)GlcNAc(b1-3)Gal(b1-4)GlcNAc(b1-3)Gal(b1-4)GlcNAc(b1-6)]Man(a1-6)[Gal(b1-4)GlcNAc(b1-3)Gal(b1-4)GlcNAc(b1-3)Gal(b1-4)GlcNAc(b1-3)Gal(b1-4)GlcNAc(b1-2)Man(a1-3)]Man(b1-4)GlcNAc(b1-4)[Fuc(a1-6)]GlcNAc
# How it was run: as §1
# [10] = molecular target: Gal(b1-4)GlcNAc(b1-3)Gal(b1-4)GlcNAc(b1-3)Gal(b1-4)GlcNAc(b1-3)Gal(b1-4)GlcNAc(b1-3)Gal(b1-4)GlcNAc(b1-2)Man(a1-3)[Gal(b1-4)GlcNAc(b1-3)Gal(b1-4)GlcNAc(b1-3)Gal(b1-4)GlcNAc(b1-3)Gal(b1-4)GlcNAc(b1-3)Gal(b1-4)GlcNAc(b1-2)Man(a1-6)]Man(b1-4)GlcNAc(b1-4)GlcNAc
# How it was run: as §1
# [11] = molecular target: Gal(b1-4)GlcNAc(b1-3)Gal(b1-4)GlcNAc(b1-3)Gal(b1-4)GlcNAc(b1-3)Gal(b1-4)GlcNAc(b1-3)Gal(b1-4)GlcNAc(b1-2)Man(a1-3)[Gal(b1-4)GlcNAc(b1-3)Gal(b1-4)GlcNAc(b1-3)Gal(b1-4)GlcNAc(b1-3)Gal(b1-4)GlcNAc(b1-3)Gal(b1-4)GlcNAc(b1-2)Man(a1-6)]Man(b1-4)GlcNAc(b1-4)[Fuc(a1-6)]GlcNAc
# How it was run: as §1
# [12] = molecular target: Gal(b1-4)GlcNAc(b1-3)Gal(b1-4)GlcNAc(b1-3)Gal(b1-4)GlcNAc(b1-3)Gal(b1-4)GlcNAc(b1-3)Gal(b1-4)GlcNAc(b1-2)[Gal(b1-4)GlcNAc(b1-3)Gal(b1-4)GlcNAc(b1-3)Gal(b1-4)GlcNAc(b1-3)Gal(b1-4)GlcNAc(b1-3)Gal(b1-4)GlcNAc(b1-6)]Man(a1-6)[Gal(b1-4)GlcNAc(b1-3)Gal(b1-4)GlcNAc(b1-3)Gal(b1-4)GlcNAc(b1-3)Gal(b1-4)GlcNAc(b1-3)Gal(b1-4)GlcNAc(b1-2)Man(a1-3)]Man(b1-4)GlcNAc(b1-4)[Fuc(a1-6)]GlcNAc
# How it was run: as §1
# [13] = molecular target: Gal(b1-4)GlcNAc(b1-3)Gal(b1-4)GlcNAc(b1-3)Gal(b1-4)GlcNAc(b1-3)Gal(b1-4)GlcNAc(b1-3)Gal(b1-4)GlcNAc(b1-3)Gal(b1-4)GlcNAc(b1-2)Man(a1-3)[Gal(b1-4)GlcNAc(b1-3)Gal(b1-4)GlcNAc(b1-3)Gal(b1-4)GlcNAc(b1-3)Gal(b1-4)GlcNAc(b1-3)Gal(b1-4)GlcNAc(b1-3)Gal(b1-4)GlcNAc(b1-2)Man(a1-6)]Man(b1-4)GlcNAc(b1-4)GlcNAc
# How it was run: as §1
# [14] = molecular target: Gal(b1-4)GlcNAc(b1-3)Gal(b1-4)GlcNAc(b1-3)GalNAc
# How it was run: as §1
# [15] = molecular target: Gal(b1-4)GlcNAc(b1-3)Gal(b1-4)GlcNAc(b1-3)[Gal(b1-4)GlcNAc(b1-3)Gal(b1-4)GlcNAc(b1-6)]GalNAc
# How it was run: as §1
# [16] = molecular target: Gal(b1-4)GlcNAc(b1-3)Gal(b1-4)GlcNAc(b1-6)[Gal(b1-3)]GalNAc
# How it was run: as §1
# [17] = molecular target: Gal(b1-4)GlcNAc(b1-3)Gal(b1-4)[Fuc(a1-3)]GlcNAc(b1-3)Gal(b1-4)[Fuc(a1-3)]GlcNAc
# How it was run: as §1
# [18] = molecular target: Gal(b1-4)GlcNAc(b1-3)GalNAc
# How it was run: as §1
# [19] = molecular target: Gal(b1-4)GlcNAc(b1-3)[Fuc(a1-3)GlcNAc(b1-6)]Gal(b1-4)Glc
# How it was run: as §1
# [20] = molecular target: Gal(b1-4)GlcNAc(b1-3)[Gal(b1-4)GlcNAc(b1-6)]Gal(b1-4)GlcNAc
# How it was run: as §1
# [21] = molecular target: Gal(b1-4)GlcNAc(b1-3)[GlcNAc(b1-6)]Gal(b1-4)GlcNAc
# How it was run: as §1
# [22] = molecular target: Gal(b1-4)GlcNAc(b1-6)Gal(b1-4)GlcNAc
# How it was run: as §1
# [23] = molecular target: Gal(b1-4)GlcNAc(b1-6)GalNAc
# How it was run: as §1
# [24] = molecular target: Gal(b1-4)GlcNAc(b1-6)[Gal(b1-3)]GalNAc
# How it was run: as §1
# [25] = molecular target: Gal(b1-4)GlcNAc(b1-6)[Gal(b1-4)GlcNAc(b1-3)]GalNAc
# How it was run: as §1
# Gal(b1-4)GlcNAc6P = molecular target: Gal(b1-4)GlcNAc6P
# How it was run: as §1
# Gal(b1-6)Gal = molecular target: Gal(b1-6)Gal
# How it was run: as §1
# Gal3S(b1-3)GalNAc = molecular target: Gal3S(b1-3)GalNAc
# How it was run: as §1
# Gal3S(b1-3)GlcNAc = molecular target: Gal3S(b1-3)GlcNAc
# How it was run: as §1
# [26] = molecular target: Gal3S(b1-3)[Fuc(a1-4)]GlcNAc
# How it was run: as §1
# Gal3S(b1-4)Glc = molecular target: Gal3S(b1-4)Glc
# How it was run: as §1
# Gal3S(b1-4)Glc6S = molecular target: Gal3S(b1-4)Glc6S
# How it was run: as §1
# Gal3S(b1-4)GlcNAc = molecular target: Gal3S(b1-4)GlcNAc
# How it was run: as §1
# [27] = molecular target: Gal3S(b1-4)[Fuc(a1-3)]Glc6S
# How it was run: as §1
# [28] = molecular target: Gal3S(b1-4)[Fuc(a1-3)]GlcNAc
# How it was run: as §1
# [29] = molecular target: Gal3S(b1-4)[Fuc(a1-3)]GlcNAc6S
# How it was run: as §1
# Gal3S4S(b1-4)GlcNAc = molecular target: Gal3S4S(b1-4)GlcNAc
# How it was run: as §1
binder,measurement,setting,value
B1,glycan array binding signal (z-score),[1],10.6
same,glycan array binding signal (z-score),[2],0.552
same,glycan array binding signal (z-score),[3],0.078
same,glycan array binding signal (z-score),[4],1.2
same,glycan array binding signal (z-score),[5],1.14
same,glycan array binding signal (z-score),[6],0.833
same,glycan array binding signal (z-score),[7],0.855
same,glycan array binding signal (z-score),[8],0.445
same,glycan array binding signal (z-score),[9],7.28
same,glycan array binding signal (z-score),[10],-0.227
same,glycan array binding signal (z-score),[11],0.435
same,glycan array binding signal (z-score),[12],3.33
same,glycan array binding signal (z-score),[13],-0.005
same,glycan array binding signal (z-score),[14],-0.063
same,glycan array binding signal (z-score),[15],0.573
same,glycan array binding signal (z-score),[16],-0.044
same,glycan array binding signal (z-score),[17],-0.009
same,glycan array binding signal (z-score),[18],-0.436
same,glycan array binding signal (z-score),[19],-0.221
same,glycan array binding signal (z-score),[20],-0.195
same,glycan array binding signal (z-score),[21],0.092
same,glycan array binding signal (z-score),[22],-0.376
same,glycan array binding signal (z-score),[23],0.393
same,glycan array binding signal (z-score),[24],0.271
same,glycan array binding signal (z-score),[25],-0.351
same,glycan array binding signal (z-score),Gal(b1-4)GlcNAc6P,0.34
same,glycan array binding signal (z-score),Gal(b1-6)Gal,-0.019
same,glycan array binding signal (z-score),Gal3S(b1-3)GalNAc,-0.349
same,glycan array binding signal (z-score),Gal3S(b1-3)GlcNAc,-0.2
same,glycan array binding signal (z-score),[26],0.01
same,glycan array binding signal (z-score),Gal3S(b1-4)Glc,0.684
same,glycan array binding signal (z-score),Gal3S(b1-4)Glc6S,-0.314
same,glycan array binding signal (z-score),Gal3S(b1-4)GlcNAc,-0.006
same,glycan array binding signal (z-score),[27],-0.36
same,glycan array binding signal (z-score),[28],-0.646
same,glycan array binding signal (z-score),[29],-0.381
same,glycan array binding signal (z-score),Gal3S4S(b1-4)GlcNAc,-0.238
